According to the supplement of paper PMC7826260:
The list shows a part of the results. Each Rep nickase domain was tested in vitro on the same pool of single strands (3 µM enzyme, 1 h, 37 °C); shown is the middle of each 90-letter strand. The score is log2 (uncut reads / reads without enzyme); the lower, the more was cut; hits are not called. Counts are relative to all reads, so uncut sequences can rise above 0 when many others are cut.

Columns and labels:
Experiment in all cases: uncleaved DNA left, log2 of reads against the no-enzyme library (log2 ratio); higher = less cleavage (more negative = more Rep cleavage of the k-mer); sequences stand for … in CTCGTCCG…ACCGGAGA
[1] = test system: T1, Rep nickase domain of Muscovy duck circovirus
T1 sequence (residues 1-111 of Rep, tag left off): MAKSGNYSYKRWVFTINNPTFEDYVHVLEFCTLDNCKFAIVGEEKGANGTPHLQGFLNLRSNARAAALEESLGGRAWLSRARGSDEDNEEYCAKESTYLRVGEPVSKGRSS
Method: (§1)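 A pool of 90-nt single-stranded DNAs with seven random bases just before the constant AC of the nick site (name = the seven bases) was cut by 3 µM recombinant His6-SUMO-tagged Rep nickase domain (300 nM DNA, 50 mM HEPES pH 8.0, 50 mM NaCl, 1 mM MnCl2, 1 h, 37 °C, three replicates). Uncut DNA was amplified and sequenced.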

[2] = test system: T2, Rep nickase domain of banana bunchy top virus
T2 sequence (residues 1-94 of Rep, tag left off): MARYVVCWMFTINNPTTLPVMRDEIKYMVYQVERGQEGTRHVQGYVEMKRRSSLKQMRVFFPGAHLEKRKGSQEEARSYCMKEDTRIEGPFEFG
Method: as §1

[3] = test system: T3, Rep nickase domain of cabbage leaf curl virus
T3 sequence (residues 1-116 of Rep, tag left off): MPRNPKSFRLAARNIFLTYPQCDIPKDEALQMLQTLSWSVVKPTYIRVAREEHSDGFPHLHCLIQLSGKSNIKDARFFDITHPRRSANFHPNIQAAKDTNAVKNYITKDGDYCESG
Method: as §1

[4] = test system: T4, Rep nickase domain of chickpea chlorotic dwarf virus
T4 sequence (residues 1-124 of Rep, tag left off): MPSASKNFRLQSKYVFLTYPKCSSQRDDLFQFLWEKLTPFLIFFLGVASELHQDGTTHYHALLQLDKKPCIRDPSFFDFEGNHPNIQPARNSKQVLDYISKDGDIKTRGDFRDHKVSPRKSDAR
Method: as §1

[5] = test system: T5, Rep nickase domain of faba bean necrotic yellows virus
T5 sequence (residues 1-98 of Rep, tag left off): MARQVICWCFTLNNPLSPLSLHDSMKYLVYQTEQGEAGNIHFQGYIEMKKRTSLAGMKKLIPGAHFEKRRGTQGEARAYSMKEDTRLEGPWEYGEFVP
Method: as §1

[6] = test system: T6, Rep nickase domain of maize striate mosaic virus
T6 sequence (residues 1-117 of Rep, tag left off): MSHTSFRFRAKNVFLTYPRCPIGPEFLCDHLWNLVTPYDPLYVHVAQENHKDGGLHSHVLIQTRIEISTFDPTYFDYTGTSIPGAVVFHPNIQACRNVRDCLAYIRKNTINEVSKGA
Method: as §1

[7] = test system: T7, Rep nickase domain of porcine circovirus 2
T7 sequence (residues 2-116 of Rep, tag left off): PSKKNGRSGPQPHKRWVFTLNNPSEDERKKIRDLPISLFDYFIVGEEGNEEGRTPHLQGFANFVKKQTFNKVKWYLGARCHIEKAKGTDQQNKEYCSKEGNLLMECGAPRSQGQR
Method: as §1

[8] = test system: T8, Rep nickase domain of tomato golden mosaic virus
T8 sequence (residues 1-124 of Rep, tag left off): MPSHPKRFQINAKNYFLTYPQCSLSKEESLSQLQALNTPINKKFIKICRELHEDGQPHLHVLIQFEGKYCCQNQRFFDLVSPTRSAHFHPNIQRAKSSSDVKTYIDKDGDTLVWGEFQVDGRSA
Method: as §1

[9] = test system: T9, Rep nickase domain of tomato yellow leaf curl virus
T9 sequence (residues 1-136 of Rep, tag left off): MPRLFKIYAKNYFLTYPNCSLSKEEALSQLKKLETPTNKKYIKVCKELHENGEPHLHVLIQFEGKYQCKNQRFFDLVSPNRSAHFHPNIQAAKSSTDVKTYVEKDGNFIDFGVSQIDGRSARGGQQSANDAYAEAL
Method: as §1

[10] = test system: T10, Rep nickase domain of wheat dwarf virus
T10 sequence (residues 1-137 of Rep, tag left off): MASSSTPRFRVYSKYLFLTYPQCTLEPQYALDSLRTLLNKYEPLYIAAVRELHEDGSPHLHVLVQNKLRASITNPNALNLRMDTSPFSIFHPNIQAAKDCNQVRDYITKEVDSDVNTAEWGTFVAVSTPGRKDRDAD
Method: as §1

| Sequence | uncleaved DNA left (log2) [1] | uncleaved DNA left (log2) [2] | uncleaved DNA left (log2) [3] | uncleaved DNA left (log2) [4] | uncleaved DNA left (log2) [5] | uncleaved DNA left (log2) [6] | uncleaved DNA left (log2) [7] | uncleaved DNA left (log2) [8] | uncleaved DNA left (log2) [9] | uncleaved DNA left (log2) [10] |
| --- | --- | --- | --- | --- | --- | --- | --- | --- | --- | --- |
| AGGTATA | -0.0364 | -0.0366 | 0.0516 | -0.275 | -0.033 | 0.627 | -0.168 | 0.0285 | -0.0024 | 0.0445 |
| TAGGGCT | 0.131 | 0.0749 | 0.234 | -0.117 | 0.0123 | 0.905 | -0.345 | 0.0807 | -0.0177 | -0.0796 |
| GCCAGTG | -0.0962 | 0.0121 | -0.56 | -0.478 | 0.0724 | -0.949 | 0.0516 | 0.0648 | -0.0141 | -0.0942 |
| CTGCAGT | 0.176 | 0.0625 | -0.514 | -0.568 | 0.259 | -0.949 | 0.168 | -0.0122 | 0.0539 | -0.0379 |
| AGCCGAC | -0.0142 | -0.127 | 0.0437 | 0.462 | -0.0906 | 0.781 | -0.0178 | -0.00496 | -0.101 | -0.104 |
| GCGGCAA | 0.0473 | 0.0536 | 0.657 | 1.55 | -0.0709 | 1.93 | 0.164 | 0.084 | 0.0771 | 0.0838 |
| TGAGTGT | -0.0767 | -0.00175 | 0.0971 | 0.397 | 0.00762 | 0.741 | 0.0592 | 0.0784 | -0.0384 | -0.0509 |
| CGTAGCG | 0.0805 | -0.0166 | -0.794 | -0.601 | 0.0175 | -1.16 | 0.172 | -0.0361 | -0.0573 | -0.0425 |
| GAGTACC | 0.107 | 0.154 | 0.417 | 0.489 | -0.0328 | 1.28 | -2.04 | 0.0885 | 0.0683 | 0.21 |
| TCATAAC | -0.051 | -0.0436 | -0.391 | -1.61 | -0.0482 | -0.76 | -0.0189 | 0.0337 | -0.0213 | -0.129 |
| TACTATG | -0.0541 | -0.0656 | -0.415 | -1.05 | -0.0082 | -0.962 | -0.136 | -0.131 | -0.0226 | -0.0774 |
| CTCGTTC | -0.0317 | 0.0271 | -0.00938 | -0.649 | -0.0434 | -0.628 | -0.0277 | -0.115 | 0.0775 | -0.0543 |
| TTTTTTC | -0.062 | -0.101 | 0.147 | -0.176 | -0.0358 | -0.634 | -0.0678 | -0.171 | -0.0935 | -0.0511 |
| AAGACAT | -0.0172 | 0.11 | 0.796 | 1.95 | 0.02 | 2.1 | -0.575 | 0.108 | 0.0682 | 0.275 |
| ATATAGA | 0.117 | 0.142 | -0.0796 | -0.207 | 0.121 | -0.987 | 0.174 | 0.162 | 0.216 | 0.109 |
| TTGTACC | -0.508 | -0.145 | -0.0382 | -0.778 | -0.131 | -0.354 | -2.81 | -0.163 | -0.107 | -0.178 |
| CCCTAGA | 0.0423 | -0.0301 | -0.0756 | -0.487 | 0.0439 | -0.863 | 0.0363 | 0.0345 | 0.0644 | 0.0617 |
| AAGTGAC | 0.0727 | -0.02 | 0.195 | 0.677 | -0.104 | 0.68 | 0.0469 | 0.0226 | 0.00549 | 0.0747 |
| CGAGCAC | -0.129 | -0.0862 | 0.108 | 0.427 | -0.0605 | 0.633 | -0.228 | -0.0668 | -0.0394 | 0.0585 |
| AGCCGCA | -0.125 | 0.0417 | 0.00147 | 0.387 | -0.0141 | 0.829 | -0.00228 | 0.00925 | -0.0893 | 0.0741 |
| CATCATG | 0.0131 | 0.0297 | -0.702 | -0.522 | 0.0481 | -1.2 | 0.0391 | -0.0359 | -0.0357 | -0.105 |
| AACGAAT | 0.117 | 0.0619 | 0.125 | 0.295 | 0.018 | 1.09 | 0.121 | 0.156 | -0.0868 | 0.118 |
| GTCTCGA | 0.12 | 0.158 | 0.353 | 0.669 | 0.122 | 1.48 | 0.212 | 0.197 | 0.119 | 0.199 |
| TCAAAAC | 0.105 | 0.0827 | 0.19 | -0.278 | 0.075 | -0.568 | 0.138 | 0.206 | 0.0425 | 0.0829 |
| CACAATT | -0.0533 | -0.96 | -0.826 | -2.94 | 0.0693 | -0.798 | -3.18 | -0.0635 | 0.0189 | 0.115 |
| TGTGCTG | -0.0375 | -0.156 | 0.0337 | 0.622 | -0.1 | 0.987 | -0.057 | -0.109 | -0.23 | -0.217 |
| GTGCACG | 0.0087 | -0.00926 | -0.53 | -0.159 | 0.0231 | -0.49 | 0.102 | 0.0448 | -0.00675 | -0.1 |
| GTGGATC | 0.122 | 0.129 | 0.569 | 1.28 | 0.101 | 2 | 0.169 | 0.0186 | 0.132 | 0.144 |
| CATACGC | -0.0963 | -0.00938 | -0.12 | -0.514 | -0.00732 | -0.936 | 0.109 | -0.133 | -0.0262 | -0.0579 |
| AAACAAC | -0.0812 | -0.0287 | -0.151 | -2.27 | -0.0702 | -0.64 | 0.0165 | -0.0453 | -0.0916 | 0.0855 |
